Measurements published in patent US20220056091A1 (BRIGHT PEAK THERAPEUTICS, published 2022).

T1: Fc fused human IL-18Rα (human, UniProt Q13478 19-329, limits assumed)
T1 construct: also called IL-18Rα monomer; IL-18 receptor alpha; not shown: Fc part
T1 sequence (looked up): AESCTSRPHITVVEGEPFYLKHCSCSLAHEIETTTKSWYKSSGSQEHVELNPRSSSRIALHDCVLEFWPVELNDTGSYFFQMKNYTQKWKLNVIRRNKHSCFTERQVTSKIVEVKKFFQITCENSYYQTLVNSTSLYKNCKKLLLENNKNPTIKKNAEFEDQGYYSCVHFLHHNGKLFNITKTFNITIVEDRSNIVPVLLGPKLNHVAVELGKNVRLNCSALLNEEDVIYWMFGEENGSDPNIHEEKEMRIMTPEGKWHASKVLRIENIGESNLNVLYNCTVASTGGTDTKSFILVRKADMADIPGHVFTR

T2: Fc fused human IL-18BP isoform a (IL-18BPa) (human, UniProt O95998 31-194)
T2 construct: also called IL-18BP monomer; not shown: Fc part
T2 sequence (looked up): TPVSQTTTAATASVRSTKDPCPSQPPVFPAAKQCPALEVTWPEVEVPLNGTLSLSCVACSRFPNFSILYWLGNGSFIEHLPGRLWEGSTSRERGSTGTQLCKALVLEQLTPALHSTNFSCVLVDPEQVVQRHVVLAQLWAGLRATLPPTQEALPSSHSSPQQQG

T3: IL-18Rα/β heterodimer (Fc fused human IL-18Rα mixed and pre-incubated with Fc fused human IL-18Rβ) (human, UniProt Q13478 19-329; O95256 20-356, limits assumed)
T3 construct: 6 µg/mL of each receptor mixed and pre-incubated 30 min before capture on anti-human IgG; also called alpha/beta heterodimer IL-18 receptor; not shown: Fc part
T3 sequence (looked up) 1: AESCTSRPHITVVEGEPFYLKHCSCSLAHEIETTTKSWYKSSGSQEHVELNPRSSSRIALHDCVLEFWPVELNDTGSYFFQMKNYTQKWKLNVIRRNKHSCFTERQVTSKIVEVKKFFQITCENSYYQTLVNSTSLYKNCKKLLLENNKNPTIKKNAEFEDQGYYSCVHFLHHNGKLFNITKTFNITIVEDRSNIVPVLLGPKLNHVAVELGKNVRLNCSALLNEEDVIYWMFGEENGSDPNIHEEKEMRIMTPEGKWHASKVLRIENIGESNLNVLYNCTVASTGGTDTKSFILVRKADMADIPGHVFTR
T3 sequence (looked up) 2: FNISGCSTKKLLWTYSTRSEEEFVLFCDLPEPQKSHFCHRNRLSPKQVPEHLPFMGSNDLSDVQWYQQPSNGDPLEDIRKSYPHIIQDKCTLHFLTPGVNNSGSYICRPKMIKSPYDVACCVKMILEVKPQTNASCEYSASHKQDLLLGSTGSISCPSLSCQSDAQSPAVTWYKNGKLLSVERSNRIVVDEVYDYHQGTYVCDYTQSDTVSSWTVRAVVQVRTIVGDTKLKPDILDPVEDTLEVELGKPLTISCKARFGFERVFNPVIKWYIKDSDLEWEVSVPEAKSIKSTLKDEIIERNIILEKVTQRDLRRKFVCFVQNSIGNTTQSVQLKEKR

B1: Modified IL-18 polypeptide of SEQ ID NO: 4 (K53A) (ligand)
chain: not shown
B2: Modified IL-18 polypeptide of SEQ ID NO: 6 (E06K) (ligand)
chain: not shown
B3: Modified IL-18 polypeptide of SEQ ID NO: 21 (K53A, T63A) (ligand)
chain: not shown
B4: Modified IL-18 polypeptide of SEQ ID NO: 5 (S55A) (ligand)
chain: not shown
B5: Modified IL-18 polypeptide of SEQ ID NO: 8 (E06K, S55A) (ligand)
chain: not shown
B6: Modified IL-18 polypeptide of SEQ ID NO: 9 (K53A, S55A) (ligand)
chain: not shown
B7: Modified IL-18 polypeptide of SEQ ID NO: 19 (T63A) (ligand)
chain: not shown
B8: Modified IL-18 polypeptide of SEQ ID NO: 20 (E06K, T63A) (ligand)
chain: not shown
B9: Modified IL-18 polypeptide of SEQ ID NO: 7 (E06K, K53A) (ligand)
chain: not shown
notes: also called E6K, K53A variant IL-18

What was measured:
Fc fused human IL-18Rα = target: T1, Fc fused human IL-18Rα; assay: SPR, Fc-IL-18Rα captured, 1:1 model
Description: (§1) The interaction of the wild type and of modified IL-18 polypeptides with human IL-18 receptor subunits were measured with Surface Plasmon Resonance (SPR) technology. Anti-human IgG antibodies were bound by amine coupling onto a CM5 chip to capture 6 μg/mL of Fc fused human IL-18Rα, 6 μg/mL of Fc fused human IL-18Rβ, or 2 μg/mL of Fc fused human IL-18BP isoform a (IL-18BPa) for 30 min before capture. In other settings, 6 μg/mL of alpha and beta IL-18 receptors were mixed and pre-incubated for 30 min before capture of the alpha/beta heterodimer IL-18 receptor.
(§2) The kinetic binding of the IL-18 analytes were measured with a Biacore 8K instrument in two-fold serial dilutions starting at 1 μM down to 0.98 nM. Regeneration of the surface back to amine coupled anti IgG antibody was done after every concentration of analyte. To measure the protein association to the receptors, the samples were injected with a flow rate of 50 μL/min for 60 s, followed by 300 s buffer only to detect the dissociation. The used running buffer was 1×PBS with 0.05% Tween20. The relative response units (RU, Y-axis) are plotted against time (s, X-axis) and analyzed in a kinetic 1:1 binding model for the monomer receptor binding and for the binding to the IL-18BP. A kinetic heterogenous ligand fit model was applied for the alpha/beta heterodimer binding.
Modified IL-18 polypeptides having sequence modifications E06K, K53A, S55A, and T63A maintained binding affinity to IL-18Rα.

[1] = target: T2, Fc fused human IL-18BP isoform a …; assay: SPR, Fc-IL-18BPa captured, 1:1 model
Description: as §1, §2
Modified IL-18 polypeptides bearing sequence modifications K53A, S55A, E06K, C38S, C68S, C76S, C127S, and/or K70C maintained binding affinity to IL-18BP.

[2] = target: T3, IL-18Rα/β heterodimer (Fc fused human …); assay: SPR, Fc-IL-18Rα/Fc-IL-18Rβ mix captured, heterogeneous ligand model
Description: as §1, §2
Modified IL-18 polypeptides bearing sequence modifications E06K, K53A, S55A, and T63A maintained binding affinity to IL-18Rα/β heterodimer.

[3] = target: IL-18R on HEK-Blue IL18R reporter cells (InvivoGen, #hkb-hmil18); assay: cell-based or functional assay

Binder	Kd (Fc fused human IL-18Rα)	koff (Fc fused human IL-18Rα)	kon (Fc fused human IL-18Rα)	Kd [1]	koff [1]	kon [1]	Kd [2]	koff [2]	kon [2]	EC50 (pM), HEK-Blue IL18R reporter assay [3]	Potency loss Mutant/NWT, HEK-Blue IL18R reporter assay [3]
B1	200 nM	0.032 s⁻¹	160000 M⁻¹ s⁻¹	1.33 nM	0.000538 s⁻¹	206000 M⁻¹ s⁻¹	249 nM	0.0354 s⁻¹	142000 M⁻¹ s⁻¹	–	–
B2	1.37 nM	0.00111 s⁻¹	824000 M⁻¹ s⁻¹	0.101 nM	0.000141 s⁻¹	1.46e+06 M⁻¹ s⁻¹	0.335 nM	0.000391 s⁻¹	1.3e+06 M⁻¹ s⁻¹	–	–
B3	800 nM	0.0133 s⁻¹	16600 M⁻¹ s⁻¹	9.22 nM	0.000966 s⁻¹	105000 M⁻¹ s⁻¹	63 nM	0.00105 s⁻¹	16700 M⁻¹ s⁻¹	–	–
B4	136 nM	0.0121 s⁻¹	90800 M⁻¹ s⁻¹	1.13 nM	0.000298 s⁻¹	270000 M⁻¹ s⁻¹	96.4 nM	0.00998 s⁻¹	152000 M⁻¹ s⁻¹	–	–
B5	14.8 nM	0.00393 s⁻¹	265000 M⁻¹ s⁻¹	0.364 nM	0.000258 s⁻¹	710000 M⁻¹ s⁻¹	14.8 nM	0.933 s⁻¹	6.3e+07 M⁻¹ s⁻¹	–	–
B6	–	–	–	29.8 nM	0.00201 s⁻¹	67400 M⁻¹ s⁻¹	–	–	–	–	–
B7	37.8 nM	0.00359 s⁻¹	95200 M⁻¹ s⁻¹	0.0321 nM	8.98e-06 s⁻¹	279000 M⁻¹ s⁻¹	9.09 nM	0.000624 s⁻¹	68600 M⁻¹ s⁻¹	–	–
B8	2.33 nM	0.00151 s⁻¹	648000 M⁻¹ s⁻¹	0.175 nM	0.000328 s⁻¹	1.87e+06 M⁻¹ s⁻¹	0.658 nM	0.000456 s⁻¹	693000 M⁻¹ s⁻¹	–	–
B9	8.88 nM	0.0071 s⁻¹	816000 M⁻¹ s⁻¹	2.26 nM	0.00304 s⁻¹	1.36e+06 M⁻¹ s⁻¹	1.47 nM	0.000856 s⁻¹	582000 M⁻¹ s⁻¹	0.72 pM	0.22 fold
